# Test results reported in publication PMC4917848.
# Protein sequences, listed by entry. Tags and fused reporters are not part of them. Lines headed by an entry give the natural chain unless they say otherwise; changes in a name come on top.
# UniProt P48431: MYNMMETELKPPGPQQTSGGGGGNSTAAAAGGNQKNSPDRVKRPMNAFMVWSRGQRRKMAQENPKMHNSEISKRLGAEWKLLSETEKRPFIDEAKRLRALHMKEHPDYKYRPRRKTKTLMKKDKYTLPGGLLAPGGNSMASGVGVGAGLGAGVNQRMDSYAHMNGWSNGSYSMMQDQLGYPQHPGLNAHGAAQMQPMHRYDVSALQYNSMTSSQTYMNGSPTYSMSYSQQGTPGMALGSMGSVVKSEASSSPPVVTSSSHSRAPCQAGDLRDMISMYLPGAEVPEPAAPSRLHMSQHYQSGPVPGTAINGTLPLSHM
# UniProt Q06945: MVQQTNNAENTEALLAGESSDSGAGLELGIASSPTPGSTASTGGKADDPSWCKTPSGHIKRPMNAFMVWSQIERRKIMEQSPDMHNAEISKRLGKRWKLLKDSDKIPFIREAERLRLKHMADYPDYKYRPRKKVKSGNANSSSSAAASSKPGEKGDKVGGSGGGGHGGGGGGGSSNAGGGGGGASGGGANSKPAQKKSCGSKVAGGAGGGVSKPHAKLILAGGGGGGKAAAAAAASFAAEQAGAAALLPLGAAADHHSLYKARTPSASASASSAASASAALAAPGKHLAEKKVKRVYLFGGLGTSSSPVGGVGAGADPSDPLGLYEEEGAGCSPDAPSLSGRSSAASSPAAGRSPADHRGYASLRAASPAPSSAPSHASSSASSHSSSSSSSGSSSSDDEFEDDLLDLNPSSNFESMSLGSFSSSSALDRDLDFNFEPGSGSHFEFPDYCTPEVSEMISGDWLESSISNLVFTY
# UniProt P01106: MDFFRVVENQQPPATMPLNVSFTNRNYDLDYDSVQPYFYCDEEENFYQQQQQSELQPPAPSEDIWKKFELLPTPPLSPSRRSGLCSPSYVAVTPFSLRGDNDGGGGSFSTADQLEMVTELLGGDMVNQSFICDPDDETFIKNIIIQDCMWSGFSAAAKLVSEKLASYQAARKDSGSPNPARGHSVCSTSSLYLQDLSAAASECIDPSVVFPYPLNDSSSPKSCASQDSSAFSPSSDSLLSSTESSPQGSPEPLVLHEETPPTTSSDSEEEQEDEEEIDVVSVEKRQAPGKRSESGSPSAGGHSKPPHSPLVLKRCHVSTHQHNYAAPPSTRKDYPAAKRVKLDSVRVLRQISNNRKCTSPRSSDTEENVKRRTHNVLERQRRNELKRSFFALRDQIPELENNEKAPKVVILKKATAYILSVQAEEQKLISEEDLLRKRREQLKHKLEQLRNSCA
# No constants are given. Whether binding was seen depends on the method and setting. In cells and extracts the contact can be indirect. Some results given as binding are weak or reduced against the parent protein; the word gives no strength. For some assays here: Sequences can lack the tags named with a protein.
# T1: HA-VRK1 (human) (UniProt Q99986)
# T1 sequence: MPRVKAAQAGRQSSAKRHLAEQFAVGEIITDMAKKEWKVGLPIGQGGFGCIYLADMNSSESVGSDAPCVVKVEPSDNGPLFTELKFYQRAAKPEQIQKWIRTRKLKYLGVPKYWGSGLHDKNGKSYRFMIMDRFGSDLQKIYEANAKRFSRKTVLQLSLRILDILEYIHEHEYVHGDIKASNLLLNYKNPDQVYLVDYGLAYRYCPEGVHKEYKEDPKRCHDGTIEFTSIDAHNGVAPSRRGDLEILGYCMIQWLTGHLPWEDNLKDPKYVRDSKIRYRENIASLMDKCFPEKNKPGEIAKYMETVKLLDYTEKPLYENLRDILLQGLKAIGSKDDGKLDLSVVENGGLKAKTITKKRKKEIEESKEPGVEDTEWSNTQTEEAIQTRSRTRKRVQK
# T2: GST-VRK1 (pull-down of Sox2) (human) (UniProt Q99986)
# T2 sequence: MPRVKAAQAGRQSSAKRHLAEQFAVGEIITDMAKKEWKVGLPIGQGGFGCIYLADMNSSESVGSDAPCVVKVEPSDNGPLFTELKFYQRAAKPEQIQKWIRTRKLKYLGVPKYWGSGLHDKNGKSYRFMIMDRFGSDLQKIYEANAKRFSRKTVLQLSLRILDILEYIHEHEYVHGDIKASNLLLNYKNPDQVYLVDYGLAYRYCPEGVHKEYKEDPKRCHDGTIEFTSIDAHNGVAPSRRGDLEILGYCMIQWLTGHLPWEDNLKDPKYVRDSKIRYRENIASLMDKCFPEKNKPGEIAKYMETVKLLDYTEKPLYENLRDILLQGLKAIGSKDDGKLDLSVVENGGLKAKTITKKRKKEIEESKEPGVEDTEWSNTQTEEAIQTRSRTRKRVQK
# T3: GST-VRK1 (co-transfected with Sox4) (human) (UniProt Q99986)
# T3 sequence: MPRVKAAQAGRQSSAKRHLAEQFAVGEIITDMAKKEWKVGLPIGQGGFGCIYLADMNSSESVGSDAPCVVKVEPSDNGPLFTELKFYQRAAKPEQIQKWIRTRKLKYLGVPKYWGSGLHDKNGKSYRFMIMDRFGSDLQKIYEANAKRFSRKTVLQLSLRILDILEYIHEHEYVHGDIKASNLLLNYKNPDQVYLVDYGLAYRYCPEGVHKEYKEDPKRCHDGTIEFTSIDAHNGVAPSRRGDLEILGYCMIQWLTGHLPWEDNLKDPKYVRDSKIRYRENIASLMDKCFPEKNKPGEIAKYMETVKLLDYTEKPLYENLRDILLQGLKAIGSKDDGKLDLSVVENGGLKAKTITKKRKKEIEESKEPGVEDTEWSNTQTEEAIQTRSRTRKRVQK
# T4: VRK1-myc (human) (UniProt Q99986)
# T4 sequence: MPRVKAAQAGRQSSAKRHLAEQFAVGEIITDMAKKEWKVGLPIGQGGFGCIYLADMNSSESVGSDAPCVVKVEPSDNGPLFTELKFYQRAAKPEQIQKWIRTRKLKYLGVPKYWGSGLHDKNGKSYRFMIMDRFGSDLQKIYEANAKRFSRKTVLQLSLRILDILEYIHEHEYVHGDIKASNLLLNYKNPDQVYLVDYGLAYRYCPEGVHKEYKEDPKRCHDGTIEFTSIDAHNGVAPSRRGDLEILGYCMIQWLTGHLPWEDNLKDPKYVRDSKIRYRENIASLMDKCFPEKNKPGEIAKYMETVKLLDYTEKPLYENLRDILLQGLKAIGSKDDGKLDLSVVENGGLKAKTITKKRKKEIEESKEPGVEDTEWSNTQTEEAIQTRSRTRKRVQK
# T5: human endogenous VRK1 (human (endogenous in MDA-MB-231, NT2, HEK293T)) (UniProt Q99986)
# T5 sequence: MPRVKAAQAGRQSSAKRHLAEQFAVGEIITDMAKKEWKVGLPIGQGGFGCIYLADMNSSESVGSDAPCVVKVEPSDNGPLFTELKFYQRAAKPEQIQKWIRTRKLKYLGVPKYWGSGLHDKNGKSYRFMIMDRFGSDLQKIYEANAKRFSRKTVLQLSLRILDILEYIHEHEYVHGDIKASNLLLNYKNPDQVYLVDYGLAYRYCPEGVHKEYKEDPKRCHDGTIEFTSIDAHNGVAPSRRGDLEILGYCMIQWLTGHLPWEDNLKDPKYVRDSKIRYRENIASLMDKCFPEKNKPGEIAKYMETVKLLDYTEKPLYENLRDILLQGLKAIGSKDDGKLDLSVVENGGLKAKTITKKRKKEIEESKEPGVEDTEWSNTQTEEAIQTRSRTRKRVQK
# Key:
# HA-VRK1 (human) = biological target: T1, HA-VRK1 (human); assay: co-IP; cells transfected with tagged plasmids (myc-Flag, HA, myc); whole cell extracts 36 h after transfection; lysis buffer 50 mM Tris-HCl pH 7.5, 150 mM NaCl, 1% Nonidet, 1 mM EDTA; beads washed five times
# [1] = biological target: T2, GST-VRK1 (pull-down of Sox2) (human); assay: pull-down; GST-VRK1 pull-down of Sox2 (Supplementary Fig. S2c); conditions not given
# [2] = biological target: T3, GST-VRK1 (co-transfected with Sox4) (human); assay: pull-down; GST-VRK1 co-transfected with tagged Sox4 wt or mutants; pull-down from the cell lysate
# VRK1-myc (human) = biological target: T4, VRK1-myc (human); assay: co-IP; cells transfected with tagged plasmids (myc-Flag, HA, myc); whole cell extracts 36 h after transfection; lysis buffer 50 mM Tris-HCl pH 7.5, 150 mM NaCl, 1% Nonidet, 1 mM EDTA; beads washed five times
# [3] = biological target: T5, human endogenous VRK1 (human (endogenous in MDA-MB-231, NT2, HEK293T)); assay: co-IP; endogenous proteins from cell lysates (MDA-MB-231, NT2, HEK293T); IP with anti-Sox2 mAb (E-4) or anti-VRK1 (1B5), blots with VC1 and Y-17; control IP with a nonspecific antibody; lysis buffer 50 mM Tris-HCl pH 7.5, 150 mM NaCl, 1% Nonidet, 1 mM EDTA
# [4] = biological target: human endogenous Sox2 (human (endogenous in MDA-MB-231, NT2, HEK293T)) (UniProt P48431); assay: as above
binding [2],binding (VRK1-myc (human)),Molecule,other results
–,–,Flag-Sox2 (from UniProt P48431 1-317),binding (HA-VRK1 (human)): binds
–,–,Sox2 (in the GST-VRK1 pull-down) (from UniProt P48431 1-317),binding [1]: binds
no binding,no binding,Tagged Sox4 wt (from UniProt Q06945 1-474),–
no binding,no binding,Tagged Sox4(A350P) (from UniProt Q06945 1-474),–
no binding,no binding,Tagged Sox4(S395X) (from UniProt Q06945 1-474),–
–,–,endogenous c-myc protein (from UniProt P01106 1-454),binding [3]: no binding
–,–,human endogenous Sox2 (from UniProt P48431 1-317),binding [3]: binds
–,–,"human endogenous VRK1 (protein, UniProt Q99986 1-396) MPRVKAAQAGRQSSAKRHLAEQFAVGEIITDMAKKEWKVGLPIGQGGFGCIYLADMNSSESVGSDAPCVVKVEPSDNGPLFTELKFYQRAAKPEQIQKWIRTRKLKYLGVPKYWGSGLHDKNGKSYRFMIMDRFGSDLQKIYEANAKRFSRKTVLQLSLRILDILEYIHEHEYVHGDIKASNLLLNYKNPDQVYLVDYGLAYRYCPEGVHKEYKEDPKRCHDGTIEFTSIDAHNGVAPSRRGDLEILGYCMIQWLTGHLPWEDNLKDPKYVRDSKIRYRENIASLMDKCFPEKNKPGEIAKYMETVKLLDYTEKPLYENLRDILLQGLKAIGSKDDGKLDLSVVENGGLKAKTITKKRKKEIEESKEPGVEDTEWSNTQTEEAIQTRSRTRKRVQK",binding [4]: binds
